Data: PMC4919659 (2016)
Read-outs that look alike come from different tables or passages of the source. Results are given in words; binding and its absence hold for the method and conditions named. In cells and extracts the contact can be indirect. Some binding calls cover weakened binding; strength is not graded here. For some of these results: Sequences can lack the tags named with a protein.

Chains of the proteins cited; added tags and fusions are not shown.
UniProt O75901: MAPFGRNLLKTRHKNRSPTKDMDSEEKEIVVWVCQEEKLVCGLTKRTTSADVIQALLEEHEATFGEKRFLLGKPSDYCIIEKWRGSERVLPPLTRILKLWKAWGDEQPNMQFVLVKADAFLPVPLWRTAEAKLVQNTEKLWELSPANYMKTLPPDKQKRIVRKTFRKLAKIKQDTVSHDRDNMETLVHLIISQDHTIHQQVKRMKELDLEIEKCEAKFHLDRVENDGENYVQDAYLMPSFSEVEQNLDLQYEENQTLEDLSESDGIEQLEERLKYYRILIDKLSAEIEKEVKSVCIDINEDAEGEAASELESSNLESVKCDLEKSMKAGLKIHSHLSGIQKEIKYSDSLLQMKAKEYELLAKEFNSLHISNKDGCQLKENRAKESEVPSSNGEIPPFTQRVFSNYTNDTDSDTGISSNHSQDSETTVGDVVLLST

T1: mCherry-MST1ΔSARAH (UniProt Q13043)
T1 sequence: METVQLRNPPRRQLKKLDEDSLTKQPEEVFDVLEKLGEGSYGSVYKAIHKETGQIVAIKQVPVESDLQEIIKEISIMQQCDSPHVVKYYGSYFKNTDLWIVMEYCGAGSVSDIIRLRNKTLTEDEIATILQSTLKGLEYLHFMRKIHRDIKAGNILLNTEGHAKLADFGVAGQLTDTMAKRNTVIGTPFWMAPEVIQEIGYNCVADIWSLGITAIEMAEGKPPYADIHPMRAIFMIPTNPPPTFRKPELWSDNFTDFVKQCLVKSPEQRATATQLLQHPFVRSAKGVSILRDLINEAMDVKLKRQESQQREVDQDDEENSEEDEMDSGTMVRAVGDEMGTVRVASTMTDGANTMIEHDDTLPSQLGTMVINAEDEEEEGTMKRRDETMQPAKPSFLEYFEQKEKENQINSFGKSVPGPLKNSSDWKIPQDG

T2: mCherry-SARAH_(MST1) (UniProt Q13043)
T2 sequence: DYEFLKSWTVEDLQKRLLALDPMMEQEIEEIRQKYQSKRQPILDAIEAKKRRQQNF

T3: mCherry-MST1 (UniProt Q13043)
T3 sequence: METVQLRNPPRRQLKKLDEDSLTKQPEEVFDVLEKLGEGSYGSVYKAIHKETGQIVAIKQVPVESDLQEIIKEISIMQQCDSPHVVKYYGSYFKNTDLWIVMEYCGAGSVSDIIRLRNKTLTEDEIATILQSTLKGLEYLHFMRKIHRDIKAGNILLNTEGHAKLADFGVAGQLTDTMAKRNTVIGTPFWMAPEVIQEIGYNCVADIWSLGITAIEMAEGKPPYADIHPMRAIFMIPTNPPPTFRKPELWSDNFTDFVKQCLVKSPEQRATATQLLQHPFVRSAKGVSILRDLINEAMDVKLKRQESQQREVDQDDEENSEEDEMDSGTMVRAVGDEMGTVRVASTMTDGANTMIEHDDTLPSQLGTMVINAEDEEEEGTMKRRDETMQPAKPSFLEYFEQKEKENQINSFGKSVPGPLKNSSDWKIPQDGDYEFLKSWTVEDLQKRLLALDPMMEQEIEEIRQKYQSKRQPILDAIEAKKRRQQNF

T4: myc-MST1 K59R (UniProt Q13043)
T4 sequence: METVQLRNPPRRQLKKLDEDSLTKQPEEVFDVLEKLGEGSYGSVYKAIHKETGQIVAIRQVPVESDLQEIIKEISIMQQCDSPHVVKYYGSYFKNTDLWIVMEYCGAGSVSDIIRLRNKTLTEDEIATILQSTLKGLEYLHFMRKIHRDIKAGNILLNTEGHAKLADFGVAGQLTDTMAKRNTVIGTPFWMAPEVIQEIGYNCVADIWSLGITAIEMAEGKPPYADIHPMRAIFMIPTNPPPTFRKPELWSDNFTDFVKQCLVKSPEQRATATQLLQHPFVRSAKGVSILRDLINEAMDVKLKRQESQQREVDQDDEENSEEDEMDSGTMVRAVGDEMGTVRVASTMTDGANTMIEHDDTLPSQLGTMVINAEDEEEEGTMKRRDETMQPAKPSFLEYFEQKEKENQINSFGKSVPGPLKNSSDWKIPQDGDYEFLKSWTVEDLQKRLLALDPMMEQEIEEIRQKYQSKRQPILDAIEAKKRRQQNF


What was measured:
[1] = target: T1, mCherry-MST1ΔSARAH; assay: FRET or BRET; FLIM-FRET in fixed COS7 cells co-transfected with EGFP-labelled donor and mCherry-labelled acceptor; 96-well plate, wide-field time-gated FLIM, 10 fields of view per well, EGFP lifetime from a monoexponential fit; shift of at least 32 ps taken as significant
[2] = target: T1, mCherry-MST1ΔSARAH; assay: as above; remark: listed apart in the source
[3] = target: T2, mCherry-SARAH_(MST1); assay: as above
[4] = target: T2, mCherry-SARAH_(MST1); assay: FRET or BRET; FLIM-FRET in fixed COS7 cells co-transfected with EGFP-labelled donor and mCherry-labelled acceptor; optically sectioned FLIM with a spinning Nipkow disc, 40x objective; monoexponential fit and global double exponential fit (FRET fraction, KD per cell from calibrated intensities)
[5] = target: T3, mCherry-MST1; assay: as above
[6] = target: T4, myc-MST1 K59R; assay: co-IP; Anti-c-Myc Immunoprecipitation kit (Sigma) on co-transfected cell lysates; blot with anti-GFP; repeated three times

| Molecule | binding [1] | binding [2] | binding [3] | binding [4] | binding [5] | binding [6] |
| --- | --- | --- | --- | --- | --- | --- |
| EGFP-RASSF4 (protein, UniProt Q9H2L5 1-321) MKEDCLPSSHVPISDSKSIQKSELLGLLKTYNCYHEGKSFQLRHREEEGTLIIEGLLNIAWGLRRPIRLQMQDDREQVHLPSTSWMPRRPSCPLKEPSPQNGNITAQGPSIQPVHKAESSTDSSGPLEEAEEAPQLMRTKSDASCMSQRRPKCRAPGEAQRIRRHRFSINGHFYNHKTSVFTPAYGSVTNVRVNSTMTTLQVLTLLLNKFRVEDGPSEFALYIVHESGERTKLKDCEYPLISRILHGPCEKIARIFLMEADLGVEVPHEVAQYIKFEMPVLDSFVEKLKEEEEREIIKLTMKFQALRLTMLQRLEQLVEAK | – | no binding | binds | binds | binds | – |
| EGFP-RASSF2 (protein, UniProt P50749 1-326) MDYSHQTSLVPCGQDKYISKNELLLHLKTYNLYYEGQNLQLRHREEEDEFIVEGLLNISWGLRRPIRLQMQDDNERIRPPPSSSSWHSGCNLGAQGTTLKPLTVPKVQISEVDAPPEGDQMPSSTDSRGLKPLQEDTPQLMRTRSDVGVRRRGNVRTPSDQRRIRRHRFSINGHFYNHKTSVFTPAYGSVTNVRINSTMTTPQVLKLLLNKFKIENSAEEFALYVVHTSGEKQKLKATDYPLIARILQGPCEQISKVFLMEKDQVEEVTYDVAQYIKFEMPVLKSFIQKLQEEEDREVKKLMRKYTVLRLMIRQRLEEIAETPATI | – | no binding | binds | binds | binds | – |
| EGFP-RASSF3 (protein, UniProt Q86WH2 1-238) MSSGYSSLEEDAEDFFFTARTSFFRRAPQGKPRSGQQDVEKEKETHSYLSKEEIKEKVHKYNLAVTDKLKMTLNSNGIYTGFIKVQMELCKPPQTSPNSGKLSPSSNGCMNTLHISSTNTVGEVIEALLKKFLVTESPAKFALYKRCHREDQVYACKLSDREHPLYLRLVAGPRTDTLSFVLREHEIGEWEAFSLPELQNFLRILDKEEDEQLQNLKRRYTAYRQKLEEALREVWKPD | – | no binding | binds | binds | binds | – |
| EGFP-RASSF5C (wild type) (protein, UniProt Q8WWW0-2 1-265) MTVDSSMSSGYCSLDEELEDCFFTAKTTFFRNAQSKHLSKNVCKPVEETQRPPTLQEIKQKIDSYNTREKNCLGMKLSEDGTYTGFIKVHLKLRRPVTVPAGIRPQSIYDAIKEVNLAATTDKRTSFYLPLDAIKQLHISSTTTVSEVIQGLLKKFMVVDNPQKFALFKRIHKDGQVLFQKLSIADRPLYLRLLAGPDTEVLSFVLKENETGEVEWDAFSIPELQNFLTILEKEEQDKIQQVQKKYDKFRQKLEEALRESQGKPG | – | no binding | binds | binds | binds | binds |

More lines, now with the values ahead:

| binding [1] | binding [2] | binding [3] | binding [4] | binding [5] | binding [6] | Molecule |
| --- | --- | --- | --- | --- | --- | --- |
| no binding | – | – | – | – | – | EGFP-RASSF9 (from UniProt O75901 1-435) |
| – | no binding | – | – | – | – | EGFP-RASSF8 (protein, UniProt Q8NHQ8 1-419) MELKVWVDGVQRIVCGVTEVTTCQEVVIALAQAIGRTGRYTLIEKWRDTERHLAPHENPIISLNKWGQYASDVQLILRRTGPSLSERPTSDSVARIPERTLYRQSLPPLAKLRPQIDKSIKRREPKRKSLTFTGGAKGLMDIFGKGKETEFKQKVLNNCKTTADELKKLIRLQTEKLQSIEKQLESNEIEIRFWEQKYNSNLEEEIVRLEQKIKRNDVEIEEEEFWENELQIEQENEKQLKDQLQEIRQKITECENKLKDYLAQIRTMESGLEAEKLQREVQEAQVNEEEVKGKIGKVKGEIDIQGQQSLRLENGIKAVERSLGQATKRLQDKEQELEQLTKELRQVNLQQFIQQTGTKVTVLPAEPIEIEASHADIEREAPFQSGSLKRPGSSRQLPSNLRILQNPISSGFNPEGIYV |
| – | no binding | – | – | – | – | EGFP-RASSF10 (protein, UniProt A6NK89 1-507) MDPSEKKISVWICQEEKLVSGLSRRTTCSDVVRVLLEDGCRRRRRQRRSRRLGSAGDPHGPGELPEPPNEDDEDDDEALPQGMLCGPPQCYCIVEKWRGFERILPNKTRILRLWAAWGEEQENVRFVLVRSEASLPNAGPRSAEARVVLSRERPCPARGAPARPSLAMTQEKQRRVVRKAFRKLAKLNRRRQQQTPSSCSSTSSSTASSCSSSPRTHESASVERMETLVHLVLSQDHTIRQQVQRLHELDREIDHYEAKVHLDRMRRHGVNYVQDTYLVGAGIELDGSRPGEEPEEVAAEAEEAAAAPPLAGEAQAAALEELARRCDDLLRLQEQRVQQEELLERLSAEIQEELNQRWMRRRQEELAAREEPLEPDGGPDGELLLEQERVRTQLSTSLYIGLRLNTDLEAVKSDLDYSQQQWDSKKRELQGLLQTLHTLELTVAPDGAPGSGSPSREPGPQACADMWVDQARGLAKSGPGNDEDSDTGLSSMHSQDSDSLPMCESLV |
| – | no binding | – | – | – | – | EGFP-RASSF7 (protein, UniProt Q02833 1-373) MLLGLAAMELKVWVDGIQRVVCGVSEQTTCQEVVIALAQAIGQTGRFVLVQRLREKERQLLPQECPVGAQATCGQFASDVQFVLRRTGPSLAGRPSSDSCPPPERCLIRASLPVKPRAALGCEPRKTLTPEPAPSLSRPGPAAPVTPTPGCCTDLRGLELRVQRNAEELGHEAFWEQELRREQAREREGQARLQALSAATAEHAARLQALDAQARALEAELQLAAEAPGPPSPMASATERLHQDLAVQERQSAEVQGSLALVSRALEAAERALQAQAQELEELNRELRQCNLQQFIQQTGAALPPPPRPDRGPPGTQGPLPPAREESLLGAPSESHAGAQPRPRGGPHDAELLEVAAAPAPEWCPLAAQPQAL |
| – | no binding | binds | binds | binds | – | EGFP-RASSF6 (protein, UniProt Q6ZTQ3 1-369) MLWEETGAAPAPARASDLPYRISSDHLKKEEKMTMMAHQYPSWIFINEKTFITREQLNSLLKTYNIFYENQKNLHILYGETEDGKLIVEGMLDIFWGVKRPIQLKIQDEKPFSSFTSMKSSDVFSSKGMTRWGEFDDLYRISELDRTQIPMSEKRNSQEDYLSYHSNTLKPHAKDEPDSPVLYRTMSEAALVRKRMKPLMMDRKERQKNRASINGHFYNHETSIFIPAFESETKVRVNSNMRTEEVIKQLLQKFKIENSPQDFALHIIFATGEQRRLKKTDIPLLQRLLQGPSEKNARIFLMDKDAEEISSDVAQYINFHFSLLESILQRLNEEEKREIQRIVTKFNKEKAIILKCLQNKLVIKTETTV |
